Test results taken from publication PMC7819943, “Rice protein-binding microarrays: a tool to detect cis-acting elements near promoter regions in rice”.
This is one part of the list.

These sequences were tested against T1, OsWOX13 (Oryza sativa, UniProt Q5QMM3 1-267) (assay: protein-binding microarray (RPBM); PBS, 2% BSA, 51.3 ng/ul salmon testes DNA, 50 uM zinc acetate, 200 nM TF, 25 C, 1 h; high values mean tight binding). Conditions: protein: recombinant; tags: N-terminal polyhistidine and DsRed monomer fusion (pET32a); label: CyDye5-dUTP incorporated in the synthesized complementary strand; 3' TTTTT single-stranded linker to array surface; dsDNA, one strand shown.
T1 sequence: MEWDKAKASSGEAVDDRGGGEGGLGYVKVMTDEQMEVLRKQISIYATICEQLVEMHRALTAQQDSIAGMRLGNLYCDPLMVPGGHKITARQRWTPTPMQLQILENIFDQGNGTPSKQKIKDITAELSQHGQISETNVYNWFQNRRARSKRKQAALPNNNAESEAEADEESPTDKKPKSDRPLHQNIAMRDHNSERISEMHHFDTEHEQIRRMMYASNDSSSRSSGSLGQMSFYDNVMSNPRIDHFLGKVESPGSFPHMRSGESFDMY
Procedure, shortened: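 An Axon 4000B scanner gave the binding signal as per-feature fluorescence intensity in arbitrary units. This followed washing of a custom Agilent array that had been incubated for 1 h at 25 °C with 200 nM protein in PBS, 2% BSA, salmon testes DNA and 50 µM zinc acetate. The proteins were transcription factors fused at the N-terminus to polyhistidine and DsRed, expressed in E. coli BL21-CodonPlus and purified on Ni–NTA.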

Sequence	binding signal
GGTCTGATTGCAGAGAAAGAGGAGCTAATGAACAGTATGACGGAGTCACCTAGTGCAG	14700 fluorescence intensity (a.u.)
TTGATAATTTGTTTTAGGTACATGCTCTTTAGTTTGTACTCGGAGTCACCTAGTGCAG	32400 fluorescence intensity (a.u.)
CCGCGTTGAAAGTCTTCGCAGGCGGCCACCTTCTCCTCGCCGGAGTCACCTAGTGCAG	4140 fluorescence intensity (a.u.)
CAAATAGCCCTGATTTGTCGTCAAAGATTAGGGACACCAGCGGAGTCACCTAGTGCAG	8180 fluorescence intensity (a.u.)
GTAATTTTGGTATGATTTAATAACTAAATTTGCACCTCAACGGAGTCACCTAGTGCAG	25400 fluorescence intensity (a.u.)
GGACTAAACTAAAATGATTGGAATCCAAGAAGCTATCTTACGGAGTCACCTAGTGCAG	12200 fluorescence intensity (a.u.)
CTAATAATTCGGCAATCATGCACTAAACAGTGCATTAGTACGGAGTCACCTAGTGCAG	9420 fluorescence intensity (a.u.)
GGTTGAAATTAGAACGATGTGATAGAAAAGTTGAAAGTTTCGGAGTCACCTAGTGCAG	7220 fluorescence intensity (a.u.)
CTGTGAATTGATTCATCTCTCACACATGGTTCTCCACTATCGGAGTCACCTAGTGCAG	9680 fluorescence intensity (a.u.)
TTTGATGTGATAGAAAAGTTGGAAGTTTAAAGAAATATTTCGGAGTCACCTAGTGCAG	13100 fluorescence intensity (a.u.)
CTTGGATTGCCATAACACGACCGCGAAAGACCAAAATCATCGGAGTCACCTAGTGCAG	3670 fluorescence intensity (a.u.)
AGCAATTGAAGTTAACTCTGGTGCTTCTGTTGATGTCGGTCGGAGTCACCTAGTGCAG	3690 fluorescence intensity (a.u.)
TTAATAGATGACGCCGTTAATCTTTAATATCACGTTTGACCGGAGTCACCTAGTGCAG	7380 fluorescence intensity (a.u.)
AAAGGGATGAGATTGAAGCAATTCCCGTGACTAGAAAACGCGGAGTCACCTAGTGCAG	3320 fluorescence intensity (a.u.)
TAAAATTATATATTAATTGATATTTCTATATATATTGTAACGGAGTCACCTAGTGCAG	49700 fluorescence intensity (a.u.)
TGTGATAGGGACTTGAAAAGTTTTAGTCCCACGCCTTATCCGGAGTCACCTAGTGCAG	4900 fluorescence intensity (a.u.)
CAGACTTAGTTAATTATTGGACGGCAATGACTTATGCAATCGGAGTCACCTAGTGCAG	10600 fluorescence intensity (a.u.)
GCAAGAGATTGGAGGGGAGAATGAAATCTCCATTTTCGTTCGGAGTCACCTAGTGCAG	6550 fluorescence intensity (a.u.)
CCTAATTAATCCGTCAGTAGCAAATATTTACTGTAGCACCCGGAGTCACCTAGTGCAG	17600 fluorescence intensity (a.u.)
GTTTCTTATCAGTCCTGATTATCATTAACCCACTGAATAACGGAGTCACCTAGTGCAG	4280 fluorescence intensity (a.u.)
TGAGAATGATTGCAACCTGGCTTCACCAGACACCAAGCTGCGGAGTCACCTAGTGCAG	19400 fluorescence intensity (a.u.)

Sequence	binding signal
CACCGTCCCATTACAGCATGATTAACTAAAGATTCTTGTTCGGAGTCACCTAGTGCAG	8860 fluorescence intensity (a.u.)
TGTCTTCAATTAGCATCTACACTAATCATCTCAATTTCTCCGGAGTCACCTAGTGCAG	12300 fluorescence intensity (a.u.)
GTCGAATTATTTAGCCGATTGGATCACCGGTTTCAAAGGCCGGAGTCACCTAGTGCAG	3360 fluorescence intensity (a.u.)
CTCTCGATTGATTACCTAGTACTACTGCAATTCACATTGTCGGAGTCACCTAGTGCAG	52200 fluorescence intensity (a.u.)
GTAGTCTAATAACAAAATAAATTACAGATTCCGTCAGGAACGGAGTCACCTAGTGCAG	4660 fluorescence intensity (a.u.)
CCTGCTAAAGGGAATCAATCATTTCATCCATTCAACACTGCGGAGTCACCTAGTGCAG	4940 fluorescence intensity (a.u.)
TGCTAATTATAATCCATACTAATAATCAAACGACCTCCCCCGGAGTCACCTAGTGCAG	48000 fluorescence intensity (a.u.)
CCACCGTGATTTTCGCTCCCATCACCGCGCGAGGACTCCGCGGAGTCACCTAGTGCAG	3320 fluorescence intensity (a.u.)
CATTTGACTGAACAAGAACAGTAGGATCAATCTTTGTGCACGGAGTCACCTAGTGCAG	16900 fluorescence intensity (a.u.)
GTGATTACTTGTACTAATTTGTAAACCGTGTGAGCGTCCGCGGAGTCACCTAGTGCAG	43100 fluorescence intensity (a.u.)
GCTTCATAGTCAATTTTCAACTAAACAGCCATGCTGCTTCCGGAGTCACCTAGTGCAG	4810 fluorescence intensity (a.u.)
AAACTTATAATTTTGGTGTGAAATAAACACATGCTAGTAGCGGAGTCACCTAGTGCAG	3190 fluorescence intensity (a.u.)
CGATTGATTGATTCTTGGTGCTCACTATCTCTAAATTGATCGGAGTCACCTAGTGCAG	59600 fluorescence intensity (a.u.)
TAGTTAATTGTATTATGGAACATCTAAGAAAAGTAGTTGTCGGAGTCACCTAGTGCAG	31500 fluorescence intensity (a.u.)
AATAATAAAGTAATTATAATTAGAGAAGGTGAATGACAAGCGGAGTCACCTAGTGCAG	26400 fluorescence intensity (a.u.)
AAATTTTGTGGTATTCTTTGATTGGAGAAAATGTTTGTTACGGAGTCACCTAGTGCAG	6140 fluorescence intensity (a.u.)
AATATACAAGTTTTGTGATTAAATTGTTATTAAACCGGTACGGAGTCACCTAGTGCAG	6190 fluorescence intensity (a.u.)
ACCCTTAATTTGTTCCTAATCACAATTGCCGAACGCAGCCCGGAGTCACCTAGTGCAG	49400 fluorescence intensity (a.u.)
TTAATCTTTGATTGTGCGTGTATGGAGTTCTGGATTAGGACGGAGTCACCTAGTGCAG	7330 fluorescence intensity (a.u.)
CACAATTCAATTACAGTCACAATTAGTGAGCCAAGAAAGACGGAGTCACCTAGTGCAG	20400 fluorescence intensity (a.u.)
AGAACCGAATTAATTTGGGGTTAAATAAATGACTAAGCAGCGGAGTCACCTAGTGCAG	10900 fluorescence intensity (a.u.)
